The values below come from PubChem BioAssay (NCI).

SMILES strings stand for the structures.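 Following 48 hours of exposure in 96-well plates, responses at five concentrations were used to interpolate endpoints linearly. GI50 is the concentration that inhibits growth by half. TGI denotes the concentration required for complete inhibition of growth.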 Bounds are passed on as bounds.

The assay has as its system NCI-H322M lung. In words: inhibition of tumour cell growth, NCI panel, 48 h.
In turn, `Cc1c2cnccc2c(C)c2c1[nH]c1ccc(O)cc12` had a TGI greater than 10 µM.
For the molecule `COc1ccccc1C1CC(=O)CC(c2ccccc2OC)C12C(=O)NC(=S)NC2=O` (stereo not given), the TGI was greater than 100 µM.
On to `CC(=O)[O][Pb]([O]C(C)=O)([c]1ccccc1)[c]1ccccc1`, for which the GI50 is 18.6 µM and the TGI was greater than 100 µM.
On to `O=C(O)C(=C\c1ccc2c(c1)OCO2)/C(=C/c1ccc2c(c1)OCO2)C(=O)O`, for which the TGI was greater than 100 µM.
For `Cc1c2ccncc2cc2c1sc1ccncc12`, the TGI stood at 14.6 µM.
The same measure, in the same setting: the result for `COc1cc(S(=O)(=O)Nc2ccc(-c3csc(N4C(=O)CSC4c4cccs4)n3)cc2)ccc1Cl` (stereo not given) reads greater than 100 µM; that for `Cc1ccc(NCC2CC/C(=C\c3ccc(Cl)cc3)C2=O)cc1` (stereo not given), greater than 100 µM.
Regarding `COc1cccc(C2=C(c3cn(C)c4ccccc34)C(=O)NC2=O)c1`, the GI50 was greater than 25 µM and the TGI is greater than 25 µM.
As for `COC(=O)c1[nH]c(=S)[nH]c(=O)c1-c1ccc(Cl)cc1`, the TGI is greater than 50 µM.
With `CN(C)CCNC(=O)c1cccn2c(=O)c3cc4ccccc4cc3nc12`, the GI50 was 0.171 µM and the TGI amounted to 2.5 µM.
With `C[C@@]12C=CC3C/C(=N\C(N)=S)C=C(CCCC4OCCO4)[C@]3(CC1)C2` (stereo not given in full), the TGI turned out to be 42.1 µM.
In turn, `CCOC(=O)CSc1ccnc(=O)[nH]1` showed a TGI greater than 100 µM.
In turn, `O=C1CC(=O)NC(=NN2C(=O)CSC2c2ccc(Cl)c(Cl)c2)N1` (stereo not given) gave a TGI greater than 100 µM.
Consider `CN1CCc2c1nc(-c1ccccc1)c1c2N(C)CC1`, for which the TGI is greater than 100 µM.
Regarding `NC(=O)C(Nc1c(Cl)cccc1Cl)c1cc2cc(Br)ccc2nc1Cl` (stereo not given), the TGI was greater than 100 µM.
Still for that read-out and setting: the result for `COC(=O)N1C[C@@]2(C=CC3(CC2)OCCO3)c2ccccc21` reads greater than 100 µM.
`O=S(=O)(c1ccc(NC(=S)NCc2cccnc2)cc1)N1CCCCC1`: the GI50 is 50.1 µM and the TGI is greater than 100 µM.
On to `COc1ccc(C(=O)/C=C/c2ccc(OCC(=N)N)cc2)cc1OC`, for which the TGI is greater than 10 µM.
`CC1C2CC(CC(=O)N2)C1(C)C` (stereo not given) showed a TGI greater than 100 µM.
Molecule `COc1ccc(/C=C2/C(C)=NN(c3cccc(Cl)c3)/C2=N/c2nc3ccccc3s2)cc1` had a TGI of 60.7 µM.
As for `Cc1ccc2[nH]c(C(=O)NN3C(=O)CSC34CCCCC4C)c(-c3ccccc3)c2c1` (stereo not given), the GI50 is 17.1 µM and the TGI stood at 35.4 µM.
Molecule `O=C(NCCCCCCNC(=O)c1cccc2ccccc12)c1cccc2ccccc12` registered a TGI greater than 100 µM.
For the molecule `CCC[CH2][Sn]([CH2]CCC)([O]C(C)=O)[O]C(C)=O`, the GI50 was 1.83 µM and the TGI was determined as 3.6 µM.
Molecule `CCCCc1ccc(Nc2nc(Cl)c3c(ncn3COCCOC(C)=O)n2)cc1` showed a TGI of 29.3 µM.
Regarding `CC(C)(O)c1ccc(N2CCN(c3nnc(Cc4ccccc4)c4ccccc34)CC2)nc1`, the GI50 is 8.57 µM and the TGI came to 23 µM.
Take `CC1=C2CCCC2C/C(=N/Nc2ccc([N+](=O)[O-])cc2[N+](=O)[O-])CC1` (stereo not given): the TGI is greater than 100 µM.
Still for that read-out and setting: the result for `CCCCCCn1c(SCC)c2ccccc2c1-c1nc(F)nc(F)n1` reads greater than 100 µM.
`NC1CC(=O)c2cc(Cl)sc21` (stereo not given): the TGI was greater than 100 µM.
